Results: the supplement of paper PMC3334620
In all, about 33,000 sequences were measured (“E-score (-0.5 to 0.5)”: median about -0.04, highest 2% from about 0.36 on). This is one part of the list.

These sequences were tested against T1, Hmlalpha2 (UniProt P0CY09) (assay: PBM E-score (8-mer binding enrichment) (E-score (-0.5 to 0.5)); higher = stronger / more preferred TF binding; most listed sequences are background and not binding sites). Details: protein concentration: 200 nM; construct: GST-full length.
T1 sequence: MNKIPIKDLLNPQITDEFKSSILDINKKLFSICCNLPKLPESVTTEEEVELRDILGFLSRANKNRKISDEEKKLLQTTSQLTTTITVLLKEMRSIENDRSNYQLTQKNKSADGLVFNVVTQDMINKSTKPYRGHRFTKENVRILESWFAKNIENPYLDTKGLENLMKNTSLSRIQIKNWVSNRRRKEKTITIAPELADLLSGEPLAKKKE
In short: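 Yeast transcription factors carrying a GST tag, as full-length proteins or DNA-binding domains, were produced by PURExpress in vitro transcription/translation. About 100-200 nM protein was applied to universal all-10-mer Agilent arrays, double-stranded by primer extension on fresh or once-stripped slides. Bound protein was detected with fluorescent anti-GST, and scans were normalised with masliner. The Universal PBM Analysis Suite gave each ungapped eight-base word, pooled with its reverse complement, an E-score, a modified Wilcoxon-Mann-Whitney statistic.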

Sequence	PBM E-score
CCTGCGAC	-0.228
CAGCAGCG	0.0849
CCATGTGC	0.0482
AATGCAGT	-0.00748
ACTGGATG	-0.0192
AGCCAGGG	-0.212
GACCCCAA	-0.181
AGATGTTG	-0.0256
ATGAGGGA	-0.147
AGTTTAAA	0.233
GCAGAAGC	-0.0446
GACGCTCA	-0.111
AGGTCGGG	-0.176
AGCTAGCA	-0.00921
ACAGTTAT	-0.0215
ACCACGCT	-0.134
ATAGGTTG	-0.175
GAGAGTAA	0.125
ACAATGTA	0.343
TCACATAA	0.228
ATCGTTAC	-0.0552
GCCCGAGC	-0.135
ATAAAATC	-0.0133
AGTCACTA	-0.0812
ACGAGGTG	0.0678

Sequence	PBM E-score
CCCCCATA	-0.287
GCCCGTTA	-0.208
GCAATACA	0.345
CAAGATGC	0.0469
ATATGCTG	-0.0833
CATCAGGC	-0.0475
GCTTCGTA	0.0191
ACATCGCA	0.193
CAAGTATC	0.0593
ACGGGCGC	-0.0808
AAGCGTAT	0.0488
AATTAACT	0.173
AAGCGCTA	-0.0377
CGCGGGCA	0.145
CCTCGCCG	-0.2
CAGCCTAC	-0.112
CTCTACGC	0.0772
CAGTGTGG	-0.13
GCCCCTAA	-0.235
AGCACGTA	0.203
CAAACTGC	-0.137
GATACGCC	-0.285
ACGCGTAC	0.345
CTTACGAC	-0.0977
CGCATTAG	-0.105

Sequence	PBM E-score
AAAGTCAG	-0.132
CGTGCGAG	-0.0847
AAAACAAG	0.273
CAGATTAA	0.11
GTCTGAAA	-0.00255
AACCGTAA	-0.0191
AGCTGCCG	-0.324
ACCCCAGA	-0.286
ACCCGCCA	-0.0792
GTCTACAA	0.152
AGACCCAG	-0.248
CTCGGACC	-0.277
GAATAATC	0.0998
ACAAGCAA	0.211
AAGGACGG	-0.303
CGATGTAC	0.221
CCGTTCCG	-0.225
CTAAGCGC	-0.106
CAGCCTGC	-0.0442
CATGATAG	0.152
CCTTGCTC	-0.27
CAAAGCGA	-0.0008
CGAACTTC	0.0501
ATGCACAC	0.106
AATTCGTG	0.0212

Sequence	PBM E-score
AAGGGTGT	0.0914
CCCACGGA	-0.238
AGATTAAT	0.109
GGTCTCAC	-0.0611
ATGGTACG	0.104
GGCGCCTA	-0.149
AATACGGA	0.0243
CTTTGTTC	0.0245
TAGAGCTA	-0.0458
AACGAGAG	-0.0137
AACCTTGA	0.171
CGCCGGAA	-0.247
ACCGGCCT	-0.207
CTGTCCCC	-0.341
GACACCAA	-0.139
CGCCCTAA	-0.133
GGCGTCCC	-0.425
ATAATCTA	0.131
ATAAGACC	-0.0531
CAGCCAGC	-0.251
CACGAAAG	0.0877
AGTGAACC	-0.0698
ACCGCGCC	-0.182
GTCTTAAA	0.0182
CATACGTC	0.0276

Sequence	PBM E-score
CAAGGGAA	-0.028
GACTGTCA	-0.129
CTTTAATC	-0.00148
CAGAAGTC	-0.0727
TATAGCAA	0.0624
AAATCTAT	0.127
GCCCATAC	0.0444
TCCCCCAA	-0.264
TGGCGGAA	-0.304
GGATTTAA	0.00503
ACCGGAAA	-0.227
CTGTGATC	-0.0984
CCGGAACC	-0.298
CAGAGCAA	-0.0412
CATGACTC	-0.0327
CTGGTGCA	-0.257
GATTATAC	0.0261
ATCCCCGC	-0.224
AAGCCAGG	-0.0641
TGCTGCAA	0.106
CCGACCAG	-0.132
CTACTCGC	-0.12
ATAGGTGA	-0.14
CTAGTGTA	0.215
AAAAACCC	-0.0194

Sequence	PBM E-score
TCGGCGCA	0.0292
GCAGCTGC	-0.173
GATGCTCC	-0.186
CCTAGAGA	-0.38
CCTACGAG	-0.021
AGATGCTG	-0.141
GCGTGCCC	-0.208
GAAAGGTA	0.00017
CTATCAAA	-0.113
CCCCGAGC	-0.222
CTCCGGGC	-0.289
TCAAGCCA	-0.0161
CACCTGGA	0.0519
TCTTGTAA	0.439
ACGGAAGG	-0.108
CTCGGTTA	0.0333
CCGATTAG	-0.205
AACATAAC	0.403
ATCCTGGG	-0.0481
CCATTTAG	-0.169
CCACCCTA	-0.285
GGGCGCCA	-0.212
CCATTTCG	-0.223
GACTCGGA	-0.331
CGAAAGTA	-0.0274

Sequence	PBM E-score
CTTACTTC	0.029
GGTCTGAC	-0.149
CTGTCCAA	-0.0758
CCTAGTGA	-0.238
ATTCAGAC	0.0682
GGGCATAC	-0.234
CGTTTTTA	0.253
CTAAAGGC	-0.151
CTCTGTCA	0.0728
CTTTATAA	0.138
ACTCGACA	0.203
ACTGGTAT	-0.094
ACCGGGTC	-0.0576
ACAATTGC	-0.0822
ACATTTAC	0.348
CGGCGTAG	-0.145
CTACGATC	0.0828
ACGCTCAT	0.11
CGCTACGC	-0.0548
AAAGGGAC	-0.2
ATTTCGGG	-0.134
GGTCTGCA	-0.164
TAAGAAAA	0.0949
CGTTCCAA	0.106
GGTCCCCA	-0.321

Sequence	PBM E-score
GTTGAACA	0.217
AGCCCTCA	-0.17
CCACAAAC	0.011
GCCCGTAC	-0.197
AAACTAGG	-0.0246
CTCAAAAA	-0.0777
CAGATGCG	-0.119
TTCGGCAA	0.108
GTTTCATA	-0.152
AACTTCGG	-0.138
ATTTCAGA	0.0529
CGCAACGA	0.23
ATGATCAC	-0.0124
GGTCATTA	0.0766
AACATATT	0.272
AAACCTAC	0.125
ACCCGCAG	0.0777
ACGCCGCT	0.0209
CACCGTGA	-0.121
CATAGTCC	-0.0675
TAATTTAA	0.233
GATCTGCA	-0.0388
AGAACCAT	0.116
ACGCAAGC	0.0935
TCTTCTAA	-0.0106

Sequence	PBM E-score
AATACCTC	0.15
CTTCTCTA	-0.088
AGCAGTTA	0.00423
AAGCCGCC	-0.258
ACTAAGGG	-0.245
AGAGTACC	0.012
CCACTGCC	-0.244
CTCAAGAA	-0.0411
GGATGAAA	-0.212
CATGGAAC	-0.0616
CTTCTAGC	-0.197
GCATTAAA	0.23
ATAACGCG	0.353
AACGCAAA	0.158
CGGCGTAC	0.0928
ACTACTCG	0.133
AGATGGCC	-0.17
GATAGCGC	0.102
CCGAAGGC	-0.25
ACAAAAAT	0.144
AACACCAT	0.126
ATCTTAGC	0.0548
AGAAGTGA	-0.0712
TCGACAGA	-0.0778
CAATTCTG	-0.209

Sequence	PBM E-score
TGCTAAAA	0.111
CGCGACCC	-0.0799
GCTGAATA	0.0885
AATGGTCA	0.0279
AAAAAAGC	0.0656
CCGATGGC	-0.259
CACTATCC	-0.218
GATCGGCA	-0.126
AGCCCTTG	-0.205
GATTGCTA	-0.0386
GGGAGAAC	-0.204
TAGATCGA	0.0396
TCAGTTCA	0.00802
ATTGTTTG	0.17
AACCCTGT	0.16
GTGTGAAC	0.271
ATGGGCAA	-0.108
TGGGCACA	-0.186
AAGGTAAC	0.0918
ACTTGCAA	0.162
ACGCATTA	0.334
AGGATACT	-0.0484
ACCAGCAT	0.0476
AGAATAGA	-0.00525
ATTTAGGG	-0.126

Sequence	PBM E-score
ACATCAGG	0.0683
CCGTCACC	-0.371
AGAGGGCT	-0.262
ATGCCATA	-0.0625
AACGTTCT	0.122
ACGGAAGT	-0.133
CGGATGTC	-0.279
CAGAGTTA	0.0305
CGACCGTA	-0.151
CCACCCGA	-0.216
ACGATTGA	0.143
GGGTTCCA	-0.261
ACTGCAGG	-0.11
GAGCCCTC	-0.283
CTTCAAGC	-0.147
GTGCTATA	0.147
AGGCATAT	0.00171
ATAGGAAC	-0.0625
CCGGCCCG	-0.144
GGTATACA	0.254
AAACAGAG	0.00132
ATACCTTG	0.0608
AGAATCTC	-0.015
TACGTTAA	0.325
CGTACCCA	-0.157

Sequence	PBM E-score
GCTCATTA	-0.0971
GTTGGAAA	-0.0664
ATTACGGC	0.0883
CATTTGCG	0.143
CTAGCCAA	-0.0547
AGTGCGAA	-0.0957
ATCCCTCA	-0.175
AATACTCT	0.168
AGAAGACT	-0.154
ACGTCCAG	-0.123
ATAATTTA	0.175
CGCTTGTA	0.318
GAGTCACC	-0.304
GCCGGCAA	-0.171
ACCTAGGA	-0.107
AAAGGGAG	-0.199
CTATTGTA	0.298
ACACTGGG	0.0176
ATATCTTA	0.139
ACGCCAGG	0.0642
GGAATGCC	-0.267
AACTTACT	0.0183
TCATCTCA	-0.113
CAGCTAAC	-0.0783
CCGATGTC	-0.0651

Sequence	PBM E-score
TAACGAGA	0.172
GCACCACA	-0.175
AGCACCAG	-0.15
CCGCCTCC	-0.329
AATAGGTA	0.116
CGACCTTA	-0.0344
AAGTTCTA	-0.0332
AGATGTGC	-0.112
AAAACCAT	0.03
CGGTGGCA	-0.323
TTATTGAA	0.134
GCCGCTAA	-0.0775
ATTCATGG	0.102
AGCTGTAC	-0.0823
ACCTGCAA	-0.241
CAATTCTA	0.0503
ATACATGA	0.465
CGCCAAGA	-0.208
CCCATGGA	-0.1
CATTGAAA	0.221
AAGCCGTA	-0.00684
GTGGGTCA	-0.254
AAGGCAGT	-0.131
AAGGCATA	0.0323
ACGCATGG	0.041

Sequence	PBM E-score
GATATCGC	-0.0096
ACGTACGG	-0.0574
GAATAGAA	0.0975
AGACCGAA	-0.0549
CTGCTAAG	-0.239
GCACACGA	0.0924
CGAGGGCA	-0.161
ATCGCTAA	0.0284
ACACAACG	0.377
AACTCGCC	-0.0268
ACTAGACC	-0.0766
AATCATTC	-0.0806
ATCGGTGC	-0.019
ACTTACCG	0.0981
GGAGGCAC	-0.195
CACCTGTA	-0.0584
ATACAAAG	0.306
GACAGAGC	-0.141
GCTACCCA	-0.216
